# Results taken from the supplement of paper PMC5499739.
# Whole data set: some 16,000 sequences, median “Z-score” near -0.37, cut for the highest 2% near 3.2. This is one part of the list.
# Test system: RBM10 RRM1-ZnF (GST-tagged construct)
# Experiment: RNAcompete 7-mer binding Z-score; higher = stronger binding preference
# Protocol: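 RNAcompete: 20 pmol GST-tagged RBM10 RNA-binding constructs were incubated with a designed RNA pool of about 241,000 sequences up to 41 nt (1.5 nmol) on glutathione beads for 30 min at 4 °C and washed. Bound RNAs were identified by microarray hybridisation. Each RNA 7-mer is scored by a one-sided Z-score of its enrichment, computed over probes that contain the 7-mer within longer pool sequences.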
row,Sequence,RNAcompete 7-mer binding Z-score
1,CGAGCUC,-0.552
2,CUGUUCG,-0.591
3,UUUGCGC,-0.815
4,GGGACGA,2.11
5,AGGUCCA,-0.483
6,AAGCUAA,-0.337
7,CAAUCUG,-0.75
8,UCGGCUG,0.043
9,CAGUCUC,-0.785
10,GGGCUCC,0.586
11,UUCGAGC,-0.574
12,CUGCAGU,-0.376
13,GCAGGAU,1.41
14,GAGUGAU,0.729
15,ACGACCA,-0.552
16,UGCCGCU,-0.633
17,ACGACAC,-0.496
18,AUCAAGG,0.654
19,AGAGGGG,2.11
20,UCUGCCA,-0.857
21,GUUGCAU,-0.145
22,UACGACC,-0.733
23,AGGAGUU,1.51

row,Sequence,RNAcompete 7-mer binding Z-score
1,GGCAUCU,-0.188
2,GUACAGG,2.33
3,GGCACCG,0.313
4,GUAACCG,0.111
5,GAGCGGC,1.44
6,AAGUCUG,-0.47
7,UAGCGCA,-0.487
8,GAGUCUC,-0.376
9,GCUCACC,-0.636
10,CUAGUGC,-0.308
11,CGGCCGG,-0.0609
12,AUUGAGC,-0.0252
13,AAGCCGG,0.0918
14,AGCCUUG,-0.815
15,AGAUGGA,2.97
16,UUCCCAU,-0.792
17,GUCAUUC,-0.759
18,UAGCGUG,0.329
19,GAUCGUA,-0.363
20,CAAUUGC,-0.717
21,CCUCGCA,-0.5
22,GUUUAGC,-0.405
23,AAUCGCU,-0.759

row,Sequence,RNAcompete 7-mer binding Z-score
1,UACUCAU,-0.847
2,UCGGGCA,0.491
3,UAGAUAA,-0.0609
4,UUUACUG,-0.6
5,GCACCGC,-0.139
6,UGUUUCG,-0.116
7,GAGCCGC,-0.467
8,GUCGUCA,-0.0122
9,GCAACCC,-0.613
10,CUGCAAG,-0.493
11,GGUAAAA,1.78
12,CCUCGAA,-0.639
13,GUAGGCU,0.599
14,GCCGGUA,-0.0577
15,GUUCCCC,-0.256
16,AGUCUCG,-0.428
17,UAAUAAC,-0.61
18,CUCACGA,-0.535
19,CGCUUGC,-0.539
20,UUGUGAA,-0.00246
21,AACCUCU,-0.776
22,CUCCAAA,-0.86
23,UUCUAGG,0.0235

row,Sequence,RNAcompete 7-mer binding Z-score
1,GGUCCAC,-0.106
2,GAAUCGA,-0.129
3,UAGAAAG,1.17
4,GGCUCCC,0.183
5,GCCCCUU,-0.685
6,CGCAUCA,-0.672
7,GUUUGUA,-0.116
8,ACUUCCU,-0.932
9,GCCGCUG,-0.116
10,AAAUCGU,-0.613
11,CAUUUUA,-0.886
12,CUAGUGG,0.703
13,CCACGUG,-0.22
14,GGAUUCG,0.417
15,CUCACCG,-0.48
16,CUGGGCA,0.748
17,CCCGGAG,0.0105
18,ACUGUUU,-0.824
19,UUUCUGG,-0.214
20,AAAAGGG,3.8
21,GUGGGAA,3.62
22,UAUCGCU,-0.587
23,UCCAAAA,-0.876

row,Sequence,RNAcompete 7-mer binding Z-score
1,UUUCCUG,-0.727
2,UUUCAGA,-0.73
3,AUAUUAA,-0.386
4,UCCGUUU,-0.805
5,ACUCGAC,-0.652
6,AUGUAAG,0.397
7,UUGUUGC,-0.714
8,GACCGGU,-0.0967
9,UUGCGAG,0.0983
10,CUAGAAU,-0.454
11,CUUUUUG,-0.821
12,CAUGCUA,-0.574
13,GAGAGUA,0.586
14,CCCAGUC,-0.604
15,UAGUGUA,0.462
16,AUCCAUU,-0.841
17,CUAAUCC,-0.746
18,UCGCCCC,-0.461
19,UGCGACU,-0.178
20,GAUCCUC,-0.883
21,GGCUUUA,-0.418
22,UUUUCAG,-0.561
23,GCCCACU,-0.587

row,Sequence,RNAcompete 7-mer binding Z-score
1,AAGACGG,1.56
2,CUAAUUG,-0.617
3,GCAGUCG,0.446
4,GGAAAAG,3.24
5,AGUCGAG,0.241
6,GAGCCUA,-0.639
7,CUGACCC,-0.591
8,GACGCCC,-0.516
9,AUGAGAG,0.972
10,UCUGAGC,-0.61
11,CCUUAAA,-0.776
12,AGGUAAA,1.82
13,GCCACGU,-0.477
14,GCUGGUA,0.959
15,UCACUAC,-0.587
16,GGAGCGU,1.78
17,GACCCGU,-0.714
18,GGCGCGC,0.612
19,CGUGGCA,0.423
20,GCAUCAC,-0.48
21,CCCUAUU,-0.766
22,CUGUCUC,-0.681
23,CAUUGUA,-0.659

row,Sequence,RNAcompete 7-mer binding Z-score
1,CGUUGGC,0.15
2,CAGGAGG,2.26
3,AUUACGG,0.449
4,GCGCGAC,-0.318
5,UCGGCGU,0.000789
6,CAUGAAA,-0.344
7,GCCUGCA,-0.409
8,ACUCUCA,-0.733
9,UUUCGCC,-0.85
10,AAUGGUU,2.44
11,GACCUAC,-0.776
12,UCAGAAG,0.00404
13,UCUCCAG,-0.552
14,AUGCCGU,-0.688
15,CAAUUUU,-0.971
16,AGCGAGG,2.98
17,UGGCCCG,-0.158
18,AUGAGAC,-0.126
19,GUCUAUU,-0.681
20,ACAACCA,-0.464
21,GUUUGAA,-0.246
22,UAAGUAG,0.69
23,GGGAGAU,2.7

row,Sequence,RNAcompete 7-mer binding Z-score
1,CUUUGGC,-0.867
2,CGCUGCG,-0.116
3,AAGUCCG,-0.571
4,UACCUAA,-0.698
5,CGUGAUC,-0.704
6,UAUUCAG,-0.464
7,CGCCAAG,-0.448
8,UUGCCGG,-0.334
9,CUGGCAG,0.0105
10,CCUUGCG,-0.513
11,UACUGGU,0.183
12,CGGCGGG,2.07
13,CAGGCGA,0.742
14,CCCUACU,-0.746
15,UCUGACG,-0.535
16,GGGACCU,0.641
17,GCAACCG,-0.529
18,CGAUUCC,-0.889
19,GGUCAGA,0.651
20,UCCGCGG,-0.0512
21,CCUCAAA,-0.824
22,CGGAUCA,0.267
23,UCGAAGA,-0.171
